Over roughly 33,000 sequences, “E-score (-0.5 to 0.5)” has its median near -0.017; the highest 2% begin near 0.3. The list shows a part of the results.
What follows are sequences tested against T1, Sut1 (UniProt P53032) (assay: PBM E-score (8-mer binding enrichment) (E-score (-0.5 to 0.5)); higher = stronger / more preferred TF binding; most listed sequences are background and not binding sites). Details: protein concentration: 200 nM; construct: GST-full length.
T1 sequence: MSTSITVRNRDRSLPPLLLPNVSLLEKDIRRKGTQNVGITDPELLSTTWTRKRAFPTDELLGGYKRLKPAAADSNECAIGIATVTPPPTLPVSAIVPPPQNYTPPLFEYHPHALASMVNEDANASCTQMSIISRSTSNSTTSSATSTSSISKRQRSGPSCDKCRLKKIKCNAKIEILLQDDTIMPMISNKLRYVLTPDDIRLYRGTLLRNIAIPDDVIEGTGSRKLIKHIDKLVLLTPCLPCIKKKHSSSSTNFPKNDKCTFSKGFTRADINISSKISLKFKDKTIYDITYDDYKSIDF
Method in brief: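 Yeast transcription factors carrying a GST tag, as full-length proteins or DNA-binding domains, were produced by PURExpress in vitro transcription/translation. About 100-200 nM protein was applied to universal all-10-mer Agilent arrays, double-stranded by primer extension on fresh or once-stripped slides. Bound protein was detected with fluorescent anti-GST, and scans were normalised with masliner. The Universal PBM Analysis Suite gave each ungapped eight-base word, pooled with its reverse complement, an E-score, a modified Wilcoxon-Mann-Whitney statistic.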

| Sequence | PBM E-score |
| --- | --- |
| ACATTCCG | 0.203 |
| GACGGCGA | -0.211 |
| AACGAAGT | 0.00656 |
| CAGGGCTA | -0.281 |
| CTCAGCAA | -0.0278 |
| AACACATG | -0.0982 |
| AATTAAAG | 0.198 |
| AGTCTATA | -0.057 |
| ACCGTGGC | -0.294 |
| AATCAAAG | 0.0752 |
| ATGATGAC | -0.00406 |
| TCATTACA | 0.194 |
| CTAAACTC | 0.225 |
| AGATTACT | 0.17 |
| ATTACATA | 0.154 |
| GAACAACA | 0.0257 |
| AGAAGACG | 0.165 |
| CGGGCAGA | -0.0138 |
| CACTCAAA | 0.0583 |
| CTTTCTAC | 0.0717 |
| CAGTGCGG | -0.0241 |
| TGAATGAA | 0.22 |
| CGACTTTA | 0.166 |
| ATATCAGC | -0.0972 |
| GGGCAATA | -0.115 |

| Sequence | PBM E-score |
| --- | --- |
| AACGTGTA | -0.0189 |
| AAAGACGG | 0.156 |
| GCGGTGTA | -0.0318 |
| CTAGAAAG | 0.113 |
| AGATACCT | -0.131 |
| CAGGTTCC | -0.197 |
| AGCTCAGA | -0.183 |
| ACTTGGCC | -0.0598 |
| GGTCTTAC | -0.0805 |
| ACGCACCT | -0.126 |
| CACCCCGC | 0.114 |
| ATACAGCC | -0.131 |
| AATATGGA | 0.0994 |
| ATTGAGGC | -0.013 |
| CATGGTTC | 0.0395 |
| ATGGACCG | -0.0839 |
| CCATACCA | -0.0352 |
| CTTGTGAC | -0.172 |
| CATCAATC | 0.154 |
| AGTGTGTG | 0.0153 |
| GAGGAACC | -0.152 |
| AACTGGAA | 0.00516 |
| CGCCTTCA | -0.0861 |
| CCGCTTGC | 0.0599 |
| GGAAGGTA | 0.0137 |

| Sequence | PBM E-score |
| --- | --- |
| GAGTAACC | 0.224 |
| GAGGGGCA | -0.423 |
| CTGTATGC | 0.127 |
| GGGGGGAA | -0.318 |
| GAAAGATC | -0.057 |
| CAATGAGG | -0.175 |
| AGTGCTAT | -0.0139 |
| CAATAGGC | 0.13 |
| AAGGCGCA | -0.0425 |
| CCAATGCA | -0.0621 |
| AGAGAAAC | 0.0576 |
| AGAACCCC | 0.0064 |
| CTGGGGCA | -0.334 |
| TAACGTCA | 0.0274 |
| GCGAGAAA | 0.0168 |
| AACCGGCC | -0.0986 |
| GTGACTGA | -0.0404 |
| GTAAACGA | -0.0179 |
| CCTGTTCG | -0.0708 |
| AACTTCAT | 0.0505 |
| GGGATTCA | -0.105 |
| TGTATGAA | 0.193 |
| CTCGTATA | -0.0483 |
| AAAAGTAA | 0.286 |
| ACTGCCTA | -0.16 |

| Sequence | PBM E-score |
| --- | --- |
| CCACCTCG | -0.208 |
| ACATCCAG | -0.151 |
| AGGTGAAT | -0.0631 |
| CGATAGCC | 0.132 |
| CCGAAAGG | 0.225 |
| CACGACGG | 0.0478 |
| ATCGTTGC | -0.0172 |
| ATTGAACG | 0.155 |
| CTGGTAAA | 0.141 |
| GCTATCCC | -0.216 |
| ACGCTTTG | -0.0106 |
| AGCGTAAG | -0.0488 |
| AAGCAAAT | 0.0784 |
| ATCACGAG | -0.184 |
| AGGACCAG | -0.126 |
| CAGCCTAG | -0.092 |
| CGCGGACG | 0.0627 |
| AGCCGCCT | -0.187 |
| GGCACAGA | -0.096 |
| ACTCTGAT | -0.0861 |
| ACTGGCGC | -0.226 |
| CCCTTCTA | -0.289 |
| GGTTGCCA | -0.0145 |
| GCAGCGAC | -0.281 |
| CGCCAACG | -0.107 |

| Sequence | PBM E-score |
| --- | --- |
| ACAAGATA | 0.0181 |
| AGCCCCCG | -0.26 |
| GGACGGAA | 0.0838 |
| ACGTCCCA | -0.0797 |
| AGCTAGGC | -0.232 |
| CATGTCGC | -0.143 |
| GGTACGGA | 0.155 |
| AGGGTAGA | -0.238 |
| ACTGCGAA | -0.0614 |
| CTAAGCGA | -0.0956 |
| ATGACTAC | -0.0159 |
| GCTCCTAC | -0.0257 |
| GCGCAGCA | -0.232 |
| CCAGTAAG | -0.092 |
| ATCAAAAG | 0.118 |
| CTAATATA | 0.225 |
| AAGACGCC | -0.162 |
| AGGCCAGG | -0.223 |
| CCTCAAAA | -0.029 |
| GCTTTACC | 0.225 |
| CTGTCAAG | -0.0992 |
| GGAACCCC | -0.0814 |
| CTGACAAG | 0.127 |
| GCCGTGCA | -0.19 |
| TAACTGGA | -0.0801 |

| Sequence | PBM E-score |
| --- | --- |
| GGCCTACC | -0.185 |
| CCTAGGTC | -0.183 |
| ATGAGTAC | 0.144 |
| CCTCGTAC | -0.0317 |
| AACTTTTA | 0.0977 |
| ATTGCCCC | -0.17 |
| CCAGGCCC | -0.281 |
| CCTACTAC | -0.0856 |
| ACATCACA | 0.0099 |
| AACTACTA | 0.257 |
| GCCGATTA | 0.106 |
| GCGTCAGA | -0.155 |
| AGAAACAG | -0.0583 |
| CAGAGTGG | -0.258 |
| ACGTAGTG | -0.138 |
| GATTACCA | -0.164 |
| AAAGTAGT | -0.0125 |
| CATTAGGG | -0.139 |
| AGACGCCT | -0.193 |
| TCAATCGA | 0.0594 |
| ATCCCAAA | 0.085 |
| GTATCGCA | -0.0241 |
| GAATCACC | -0.05 |
| CGGGACCG | 0.188 |
| ACGGTGCC | -0.0952 |

| Sequence | PBM E-score |
| --- | --- |
| ACAAAGTC | 0.171 |
| CAGATATC | 0.0173 |
| AGTGTCAA | -0.0888 |
| ACTAGACT | -0.313 |
| CCCGCACG | -0.102 |
| ACCTAGGT | -0.151 |
| AGTGAAAA | 0.136 |
| CCGCTGAC | -0.0188 |
| CAGGTTTA | 0.0419 |
| AGCGATGA | -0.0374 |
| TAAGACGA | -0.061 |
| ATGAGAAA | 0.18 |
| CGCAGTTA | -0.00781 |
| ACTGGTCT | -0.0362 |
| AATAAGCC | -0.179 |
| ATGAGCAT | 0.0799 |
| CCGCCTGA | -0.113 |
| AACCGACC | 0.025 |
| GAATAACC | 0.116 |
| CAACGCAG | -0.239 |
| ATGCTGAG | -0.294 |
| GCGCACCC | -0.173 |

— the supplement of paper PMC3334620
